Measured values taken from US6974820B2, “Methods for treating urinary incontinence and other disorders using trospium” (Bridge Pharma, Inc., priority 2002, dated 2005).

Target: T1, human recombinant muscarinic receptor M-2 (Homo sapiens, UniProt P08172)
T1 sequence (P08172 1-466): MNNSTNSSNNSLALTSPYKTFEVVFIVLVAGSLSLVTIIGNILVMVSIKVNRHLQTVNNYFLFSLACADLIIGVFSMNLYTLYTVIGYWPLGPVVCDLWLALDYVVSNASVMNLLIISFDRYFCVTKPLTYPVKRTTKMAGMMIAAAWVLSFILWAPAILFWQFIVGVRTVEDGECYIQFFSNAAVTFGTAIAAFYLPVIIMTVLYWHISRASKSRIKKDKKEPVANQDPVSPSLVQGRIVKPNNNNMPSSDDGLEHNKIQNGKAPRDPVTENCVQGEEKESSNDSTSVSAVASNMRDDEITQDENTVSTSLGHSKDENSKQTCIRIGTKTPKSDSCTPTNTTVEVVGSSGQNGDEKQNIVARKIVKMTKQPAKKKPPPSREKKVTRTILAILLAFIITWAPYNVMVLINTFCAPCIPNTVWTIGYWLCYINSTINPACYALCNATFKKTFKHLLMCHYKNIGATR
Experiment: biochemical

SMILES: O=C(O[C@H]1C[C@H]2CC[C@@H](C1)[N+]21CCCC1)C(O)(c1ccccc1)c1ccccc1 [Trospium, 3α-hydroxy-spiro[1αH,5αH-nortropane-8,1′-pyrrolidinium] chloride benzilate]
- Ki: 0.631 nM
